Results on 62 compounds are retold here after the supplement of paper PMC9446081.

Among all 39,000 compounds or so, about 220 (0.56%) showed activity. The list shows a part of the results.
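Further: static incubation at 37 °C against the wild-type strain, values averaged over two biological replicates.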

In the assay the test system is Escherichia coli K-12 BW25113. In words: relative growth (OD600 normalised to plate interquartile mean) (fraction); higher = less growth inhibition, active = 0.2 or less. The following applies: 50 µM; LB; incubation time: overnight (16-24 h).
As to `COc1ccc(NC(=O)N(C)C[C@H]2Oc3cc(C#CCN(C)C)ccc3S(=O)(=O)N([C@H](C)CO)C[C@@H]2C)cc1`, the relative growth is inactive: 1. In the case of `Clc1ccc(CCC(Cn2ccnc2)Sc2c(Cl)cccc2Cl)cc1` (configuration not stated), the relative growth is inactive: 0.883. Turning to `COc1ccccc1S(=O)(=O)N(C)C[C@@H]1OCc2cn(nn2)CCCC(=O)N([C@H](C)CO)C[C@@H]1C`, the relative growth was inactive: 0.988. As for `Cc1nc(=O)[nH]c(C(=O)O)c1C`, the relative growth was inactive: 0.988. Regarding `C[C@H]1CN([C@@H](C)CO)C(=O)c2cc(NS(=O)(=O)c3ccc(F)cc3)ccc2O[C@H]1CN(C)S(=O)(=O)c1cccs1`, the relative growth is inactive: 0.987. As to `C[C@H](CO)N1C[C@H](C)[C@@H](CN(C)Cc2ccc3c(c2)OCO3)Oc2c(NC(=O)Nc3ccc(C(F)(F)F)cc3)cccc2C1=O`, the relative growth is inactive: 0.894. To `Cc1ccc(S(=O)(=O)Nc2ccc3c(c2)C(=O)N([C@@H](C)CO)C[C@@H](C)[C@@H](CN(C)Cc2ccncc2)OCCCC[C@H](C)O3)cc1` belongs inactive: 0.998; to `CC(C)NC(=O)Nc1ccc2c(c1)C(=O)N([C@@H](C)CO)C[C@H](C)[C@H](CN(C)C(=O)C1CCCCC1)OCCCC[C@@H](C)O2`, inactive: 1.02. As for `C[C@@H]1CN([C@@H](C)CO)C(=O)c2cc(NS(C)(=O)=O)ccc2O[C@@H]1CN(C)S(=O)(=O)c1cn(C)cn1`, the figure is inactive: 1.01; as for `C[C@@H]1CN([C@@H](C)CO)C(=O)Cc2cc(NC(=O)Cc3cn(C)c4ccccc34)ccc2O[C@@H]1CN(C)CC1CCCCC1`, inactive: 0.979; as for `Cn1cccc1C(=O)N[C@H]1CN(S(C)(=O)=O)[C@H]2CCCO[C@@H]12`, inactive: 0.983. As for `COc1ccc(NC(=O)Nc2cccc3c2O[C@@H](CN(C)CC2CCCCC2)[C@H](C)CN([C@@H](C)CO)C3=O)cc1`, the figure is inactive: 1; as for `C[C@@H]1CN([C@@H](C)CO)C(=O)c2cc(NS(=O)(=O)c3cccs3)ccc2O[C@@H](C)CCCCO[C@H]1CN(C)C(=O)Cc1ccccc1`, inactive: 0.991. Consider `O=C(C[C@H]1CC[C@H]2[C@@H](COC[C@H](O)CN2S(=O)(=O)c2ccccc2)O1)NCc1ccc(-c2ccccc2)cc1`, for which the relative growth is inactive: 1.01. As for `COC(=O)N/N=C/c1c[n+]([O-])c2ccccc2[n+]1[O-]`, the relative growth is active: 0.0462. In the case of `C[C@H](CO)N1C[C@H](C)[C@@H](CN(C)C(=O)C2CCCCC2)OCCCC[C@H](C)Oc2ccc(NC(=O)CCC(F)(F)F)cc2C1=O`, the relative growth was inactive: 1.02. As for `C[C@@H]1CN([C@H](C)CO)C(=O)c2cc(NS(=O)(=O)c3ccc(Cl)cc3)ccc2O[C@@H](C)CCCCO[C@@H]1CN(C)S(=O)(=O)c1ccc(Cl)cc1`, the relative growth was inactive: 1.02. As for `C[C@H](CO)N1C[C@H](C)[C@@H](CN(C)S(=O)(=O)c2ccc(-c3ccccc3)cc2)OCc2cnnn2CCCC1=O`, the figure is inactive: 1.02. Turning to `C[C@H](CO)N1C[C@H](C)[C@H](CN(C)Cc2ccc(C(F)(F)F)cc2)Oc2ccc(NC(=O)Cc3ccccc3)cc2C1=O`, the relative growth was inactive: 1.03. For `Cc1ccc(-c2cnc(-c3ccc(Br)cc3)o2)cc1`, the relative growth is inactive: 0.991. To `CCCCCCCCCCCCCCCCCCOCC(O)CO` (configuration not stated) belongs inactive: 1.01; to `C[C@@H]1CN([C@@H](C)CO)C(=O)c2cc(NS(=O)(=O)c3ccc(F)cc3)ccc2O[C@@H]1CN(C)S(=O)(=O)c1cn(C)cn1`, inactive: 0.983; to `Cc1ccc(S(=O)(=O)Nc2ccc3c(c2)C(=O)N([C@H](C)CO)C[C@@H](C)[C@H](CN(C)Cc2ccc(C(=O)O)cc2)OCCCC[C@@H](C)O3)cc1`, inactive: 0.987. `C[C@H](CO)N1C[C@H](C)[C@H](CN(C)C(=O)C2CCCCC2)OCCCC[C@H](C)Oc2ccc(NC(=O)Nc3ccccc3)cc2C1=O`: the relative growth is inactive: 0.958. For `C[C@H](CO)N1C[C@H](C)[C@@H](CN(C)S(=O)(=O)c2cccs2)Oc2ccc(NC(=O)C3CC3)cc2C1=O`, the relative growth is inactive: 0.992.

With `Cc1noc(C)c1S(=O)(=O)Nc1ccc2c(c1)C(=O)N([C@@H](C)CO)C[C@@H](C)[C@H](CN(C)S(=O)(=O)c1cn(C)cn1)O2`, the relative growth is inactive: 0.992. With `C[C@@H]1CCCCO[C@H](CN(C)S(=O)(=O)c2cccs2)[C@H](C)CN([C@@H](C)CO)C(=O)c2cc(NC(=O)Nc3ccccc3)ccc2O1`, the relative growth is inactive: 1.01. For `C[C@@H]1CN([C@H](C)CO)C(=O)c2cccc(NC(=O)C3CCOCC3)c2O[C@H]1CN(C)C(=O)Nc1ccccc1`, the relative growth was inactive: 1.01. In the case of `OC[C@@H](O)[C@@H](O)[C@@H](O)/C=N/Nc1ccccc1`, the relative growth was inactive: 1.03.

Regarding `COc1ccc(S(=O)(=O)N(C)C[C@H]2Oc3ccc(NS(=O)(=O)c4ccc(C)cc4)cc3C(=O)N([C@H](C)CO)C[C@@H]2C)cc1`, the relative growth is inactive: 1.03. On to `C[C@@H]1CN([C@@H](C)CO)S(=O)(=O)c2ccc(C3=CCCCC3)cc2O[C@H]1CN(C)C(=O)C1CCOCC1`, for which the relative growth is inactive: 1.02. As for `O=C(CCCCCNC(=O)OCCCCO[C@H]1C[C@H]2C(I)=C[C@@H]1C(=O)[C@]21CCCO1)NO`, the figure is inactive: 1.03. For the compound `COc1ccccc1/C=C/C=C1/C(=O)N(c2cc(C)cc(C)c2)[C@@H](c2cccc([N+](=O)[O-])c2)S1(=O)=O`, the relative growth was inactive: 1.03. For `C[C@H]1CN([C@@H](C)CO)C(=O)c2cc(C#Cc3ccccn3)cnc2O[C@H]1CN(C)C(=O)CCN1CCCCC1`, the relative growth was inactive: 0.999. Consider `NC(=O)CCC(N)C(=O)O` (configuration not stated), for which the relative growth was inactive: 0.953. For `Cc1nonc1CO`, the relative growth was inactive: 0.961. In the case of `C[C@@H]1CN([C@@H](C)CO)C(=O)c2cc(NS(=O)(=O)c3ccccc3)ccc2O[C@@H](C)CCCCO[C@@H]1CN(C)Cc1ccc(C(F)(F)F)cc1`, the relative growth is inactive: 1.06.

`CCNc1nc2nonc2nc1NCC`: the relative growth was inactive: 0.943. On to `N[C@@H]1CCCN(c2c(/C=C3\SC(=O)NC3=O)cccc2-c2ccccc2)C1`, for which the relative growth was inactive: 0.998. As for `CC(C)NC(=O)N(C)C[C@H]1OCc2cn(nn2)CCCC(=O)N([C@@H](C)CO)C[C@@H]1C`, the relative growth is inactive: 0.983. With `C[C@H]1CN([C@@H](C)CO)C(=O)Cc2cc(NC(=O)c3ccncc3)ccc2O[C@@H]1CN(C)S(=O)(=O)c1cccs1`, the relative growth was inactive: 0.978. As for `NCCc1nc(-c2ccccc2)cs1`, the relative growth is inactive: 0.904. Turning to `CCN1CCN(C(=O)N[C@@H](C(=O)N[C@@H]2C(=O)N3[C@@H]2SC(C)(C)[C@@H]3C(=O)O)c2ccccc2)C(=O)C1=O`, the relative growth was inactive: 0.606.

Turning to `CCCNC(=O)C[C@H]1CC[C@@H]2[C@H](COc3ccc(NC(=O)c4ccc5c(c4)OCO5)cc3C(=O)N2C)O1`, the relative growth is inactive: 1.

Consider `C[C@H](CO)N1C[C@H](C)[C@@H](CN(C)C(=O)Nc2ccnc(N3CCOCC3)c2)OCc2cnnn2CCCC1=O`, for which the relative growth was inactive: 0.982. In the case of `CC(C)NC(=O)N(C)C[C@H]1Oc2ccc(NC(=O)Nc3ccc4c(c3)OCO4)cc2CC(=O)N([C@@H](C)CO)C[C@H]1C`, the relative growth is inactive: 0.986.

For `COC(=O)[C@H](Cc1ccccc1)N1CC2=C[C@@H]([C@@H](O)CCn3cc(CCC(=O)NO)nn3)n3c(=O)n(C)c(=O)n3[C@@H]2[C@@H](C2CC2)O1`, the relative growth is inactive: 1.01. As for `C[C@@H]1CN([C@H](C)CO)C(=O)c2cc(NS(=O)(=O)c3ccccc3)ccc2O[C@H]1CN(C)Cc1ccncc1`, the relative growth is inactive: 0.988.

Regarding `COc1ccc(NC(=O)Nc2ccc3c(c2)C(=O)N([C@H](C)CO)C[C@H](C)[C@H](CN(C)S(=O)(=O)c2ccccc2)OCCCC[C@H](C)O3)cc1`, the relative growth was inactive: 0.995. For the compound `Cc1noc(C)c1S(=O)(=O)Nc1ccc2c(c1)C(=O)N([C@H](C)CO)C[C@H](C)[C@@H](CN(C)Cc1ccc(Cl)c(Cl)c1)OCCCC[C@H](C)O2`, the relative growth is inactive: 1.

As to `C[C@@H]1CN([C@@H](C)CO)C(=O)c2cc(-c3cncnc3)cnc2O[C@@H]1CN(C)C(=O)Nc1ccc2c(c1)OCO2`, the relative growth was inactive: 0.995. Consider `COC(=O)C1=CO[C@@H](O[C@@H]2O[C@H](CO)[C@@H](O)[C@H](O)[C@H]2O)/C(=C\CO)[C@@H]1CC(=O)OCCc1ccc(O)cc1`, for which the relative growth was inactive: 0.991.

Consider `CO[C@@H]1CN(C)C(=O)c2cc(NC(=O)NC3CCCCC3)ccc2OC[C@H](C)N(CCc2ccccc2)C[C@H]1C`, for which the relative growth was inactive: 1.04.

Consider `C[C@@H]1CCCCO[C@@H](CN(C)C(=O)CCCN(C)C)[C@@H](C)CN([C@H](C)CO)C(=O)c2cc(NS(C)(=O)=O)ccc2O1`, for which the relative growth was inactive: 0.985.

As for `COC(=O)C1=C(C)NC(C)=C(C(=O)OCCN(C)Cc2ccccc2)C1c1cccc([N+](=O)[O-])c1.Cl` (configuration not stated), the relative growth was inactive: 1.04. To `COc1ccc(S(=O)(=O)Nc2ccc3c(c2)C(=O)N([C@@H](C)CO)C[C@@H](C)[C@H](CN(C)S(C)(=O)=O)OCCCC[C@@H](C)O3)cc1` belongs inactive: 1.01; to `CCOC(=O)N(C)C[C@@H]1OCc2cnnn2CCCC(=O)N([C@H](C)CO)C[C@@H]1C`, inactive: 1; to `CCCCCCCCCCCCCCCC(=O)OC[C@@H](NC(=O)C(Cl)Cl)[C@H](O)c1ccc([N+](=O)[O-])cc1`, inactive: 1.03. Turning to `Cc1ccc(S(=O)(=O)N(C)C[C@H]2Oc3c(NC(=O)Nc4cccc5ccccc45)cccc3C(=O)N([C@@H](C)CO)C[C@H]2C)cc1`, the relative growth is inactive: 0.997. As for `CC=Cc1ccc2n(c1=O)C[C@@H]1[C@@H](CO)[C@H](C(=O)NCCc3cn(C)cn3)N(C(=O)CC)[C@H]21`, the figure is inactive: 1.

On to `C[C@@H]1CN([C@@H](C)CO)S(=O)(=O)c2ccc(C#CCN(C)C)cc2O[C@H]1CN(C)Cc1cccnc1`, for which the relative growth is inactive: 1. As for `COc1ccc(S(=O)(=O)Nc2ccc3c(c2)CC(=O)N([C@H](C)CO)C[C@@H](C)[C@H](CN(C)C(=O)Nc2c(C)noc2C)O3)cc1`, the relative growth is inactive: 0.987.
